Results reported in article PMC10726135.
The other results are listed elsewhere or left out. At the low end of the ranking, values are background and their order means little. Measured with an extract: partners may take part in the binding.

molecular target: T1, HNF4alpha8 (COS-7 nuclear extract) (UniProt P41235-5); experiment: protein-binding microarray; conditions: COS-7 nuclear extract on double-stranded Agilent 4x180k PBM; binding buffer, salt, pH and temperature not given; high values mean tight binding; double strand, one strand shown; sequences stand for … in …GCCTAGGGAGATTAGAGTATCGGTCGA
T1 sequence: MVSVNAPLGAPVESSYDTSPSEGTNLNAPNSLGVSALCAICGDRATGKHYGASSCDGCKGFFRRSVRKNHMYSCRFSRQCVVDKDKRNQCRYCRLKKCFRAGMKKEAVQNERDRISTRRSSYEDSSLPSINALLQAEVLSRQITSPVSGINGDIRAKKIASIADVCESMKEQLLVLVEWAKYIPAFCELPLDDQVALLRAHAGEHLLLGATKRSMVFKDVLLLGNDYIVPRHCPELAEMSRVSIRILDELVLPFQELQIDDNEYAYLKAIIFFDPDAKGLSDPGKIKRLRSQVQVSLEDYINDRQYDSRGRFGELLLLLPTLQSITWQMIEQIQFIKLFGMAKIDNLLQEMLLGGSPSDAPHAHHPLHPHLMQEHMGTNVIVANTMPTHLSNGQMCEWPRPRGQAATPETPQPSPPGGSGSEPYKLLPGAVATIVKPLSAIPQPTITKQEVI

Sequence | binding signal (log2 normalized intensity)
CAGGACTCTGGGACCGCAGGGGGCTCCCGG | -1.23
CTCTCATAAAAGAGGCCAATTTCTTGTCTG | -0.0911
CACTCCCAGTCCAGATATAGGGGAGGTCCT | -0.831
ATTATGCACCCGTGGTTGATCAAAGGTTGG | 3.38
CACAGGAAAGGAGACTAAAGGTCAAAACCA | 4.27
GGGTTACCGGCAGAGAGAAGCCACTGCGAC | -1.22
AGTGTAAGGACATTGCCCCCTATGTAAAGG | 4.09
AATAAGCATTCTGTTTCCTACTGACCTCCG | 3.2
TGCGAGGTTACAGGGTTCAACACGTGGTAT | 2.55
AAGGCCTTTCATACGTTTAACAGTTCCTCC | -1.22
AGAGGAATTGTTCAACATGGTGACTCTAGT | -0.284
AGACCTTTGGGTAGGAATAGAGCTCTAAAC | -1.1
CTTCCAAGGCTGCAAGCAAACCTGCCCTTT | 4.57
GGCCAACACCAAGCAAGCTCTGCAATAGAG | -1.35
GAATCCAGGCCAACTGGAAGTCCAGCATTC | -1.27
CTATCTCAGATAGCTTTAGCCGGACTTTGT | 5.85
ACTTTCATCTGAGTCTCAGCAATTAACAGG | 0.231
ATTCCTAAGTTCCAAAGGCCATCCACATTC | 2.4
CATTCCTGCACAGGACTGCTCTCTACTCAG | -1.27
AGTGTTTCAAAGGAGTGTCTTTCTCCTTGA | 1.38
TAATAACAGACCATGCCATGCATTTCAGAA | -1.18
TATTTGATGATGAAGCAACATTAAACACTA | -1.34
GCCCCAGGTGAACCAGGGTGCAATTCGCAT | -0.837
CTTCGCAGCCCAGTGGTAATGGAGCTGAAA | -1.12
CAGCTTCATTCCAGCCCCATTCTGTGCTGG | -1.09

Sequence | binding signal (log2 normalized intensity)
CACCCTTTTTTTTCTTTCTTTTCCCAAACC | 1.32
TCACTATCTGGGCCAAGGCAGATATACCAG | -1.34
GTGTGACTGAGGGCTGACATGTCTTCTCTC | -0.81
GAGAAGAAATGATGGGTGCCACTTCTGAGC | -1.35
GTGCGTTCATCTCACAGAGTGGAGTCTTCC | -1.32
ACAAGAATGGTCATTCTCTGTTGCATGGTT | 0.996
GGCTTTAGAGTTGTAGCTCTCAGCTCCTAC | -1.25
TGCAGCAAAGTCCAGGCATACTTCCTGCTC | -1.33
TGGGAGTTGTGGTCCGCAGGGCTGCCTCGC | -1.27
GGTGGGCACCCCTGCCCCCATGTTGTTCAA | 3.93
CCGCTGATCCCGGGAGGGAGAGAAGGACAT | -1.32
CCCTATTGGGCTAGCCGCTCCTCCCACGTC | -1.27
GACCTTTGGACTTGATAGAGTTTAAGTCTT | 7.2
AGCTTTATCTCTCCCCCACCACTGCTTCCT | 3.59
GCATCAGCCGGTGCAAAGGCCTTAAAGTGT | 0.625
TCAGGTGTTGCTCTCTTGCCATTCGTGGAT | 0.994
TGCAGCCCTGCCACTCTTTTTTAGACTTTG | 4.39
TTCTCCAGGAAGTTCAGGCCTCGGCTTCAT | -1.22
TTGGACTCTATAGCCTATGCTTTGTATTTT | 3.19
CTATTTGCTAATGTCCTTTGGAGTGCTTTC | 2.01
GTTAGGTTGTGATACCCTCATTTTAGAGAT | -0.224
TCTTTAAGGACCACATCAAAGGTCATCTCT | 5.09
GAGGGATTACCCTATGTCCCCCGACCCGCC | 5.1
ATTTGCCCTGAAGACATGAAAAGTGGAATG | 1.02
TTTAAGTGGGGTCAAAGGGTACAAATTCCA | 5.4

Sequence | binding signal (log2 normalized intensity)
TCGGTAGGCTTAGGCCAGGCGGAGCACACC | -1.35
GGGCAAGTTACTTAAGCCATCTGCTGCCTC | -1.41
GGTGAGGGTTACAGGTGGACAAACAGGCTG | -1.27
AGCAGTGCCCAAAGCCCAAGGGATGTCCAT | -1.28
GATAAGGATTCCTGGAATGTTTGAGCTGGG | -0.533
TCAGTAAATCTGCACTTTACGTAAGATAAG | -1.13
GGTCGCGCCGGGCGCCGCTCTGAGTGACCT | 3.23
ATGGAAGGACCTTGGACTGAAGACTGGAAC | 3.17
GCAATGGCTGGGTCTAAGGGCAAGTGACTG | 0.265
ACTGGATGGTGCCTATTTGTCCCTGACCAA | 0.867
GTGTAACTATTACTGGACAGCCAGCTGGTA | -1.36
TTTTTGGTTCCCCTTCCCCCAACAGGGCTC | 4.45
CAAGCAATGGAGAGGATTTTGGAATGTCGC | 0.879
TGTACATAATCTGGACCCAAACGAATGGGC | 1.38
TTTATTTGCTTATAGCTCAAAGTCCACCAA | 6.23
AATGAATATTCAGACGCATGACCTCAACTC | 1.8
CTATAAACTTGGTTACAGGACCAGGTGTAG | 0.799
CAGGGCAGGGTATGCCTGACTGTAAGAAGT | -1.09
CCATCTATGCACTCTCACCTTGGGGGCTGC | 0.0953
CTTATCAGTAGTTCTCCTTTCTGCCCTTTG | 4.46
AGCCAGTGATTCAACTCTGACCCATAATAA | 2.33
AAGTGCTAGCTTGGTCTGAACCTCATCTGT | 0.762
ATGCTGATAAGGGCCACAGATGGCCTCACT | -1.07
TTATCTGAGACTCAAGGCAAGTTGCTTCCA | -1.06
TGTGCACAGGGTGTGGCTTCCAAGGGGAAT | -1.27

Sequence | binding signal (log2 normalized intensity)
CCTCCAGCTCTTTTGAACCCAAGGCCAAAC | 2.07
CAAGGGCAGAGTCCTGGGGAGGGTAAGCAT | -0.963
TATGTCTGATGAATAGAAAGAGGTCAATGT | 3.35
CAAAGAATGGAAGGCAGTGTTCCAAAGTGT | 0.319
CAAGTATTCAAGAAAGGGGCAAAGTTTATG | 3.19
TGCTGGCATCTCATTACTGACAGAGATCAA | -0.673
CAGCAGCAGGCAGGGACTTTGGCCCACGGT | 3.34
TCAAGGGGAAGAAATCTAAGATTTATAAAG | -1.16
CACTTAGCACAAGTGACTATTCTGGTTTGC | 0.555
CCTTTGTACCAAAATCACACTGGGAATTGG | -0.886
TGGTAAATAAAGGAACTTACGAAGATAAAT | -0.558
GTGTGCGTTTCCCAGATATCTCTGGTAAAC | -1.26
GGTTCAAAGGTCATTTCTGCTTGCAACCAA | 5.81
GCAGCGGGTCAATTAGCTTGAGCGAGACAG | -1.29
GCATTGAAAGCACTAATTAACTGAGCCTCA | -1.25
GTGACTGAGCAGAGATTTGACCTAAGTCTG | 1.87
CCATGAGCTGGCCTCACTAAGTCCTGCTTA | -1.26
AGGCTTTGAGTCAACACACCTGTGGGTAAT | -0.786
CTTGCTTTCTGCCCAGGGAGGTGCCTGTGC | -0.32
ATCAGAGCTGGAGGAGACCTTTGGATATCA | 4.01
AGATATGAGGCCAGTTTTCCCAAAGGAGCT | -1.36
CCTCTGAGGTGTTAACCTGATGCTGAAGTC | 0.944
TGAGCAGGCAGTGTCACAGAAATCATGTAG | -0.839
CAACCCTCCTCCCTTTGGCCATGAAAGTAT | 1.96
GAAAGATAAAAGGCCATAGGGAAAGATAAA | -1.42

Sequence | binding signal (log2 normalized intensity)
ATGAGATACCCATTCACATGACCTTTGTCC | 8.96
GCCCTGTTTAGGAGGAAATAGAGAGCAGAC | -1.36
AGTACAGGGCGTCCTTGATAAGCAAGATGA | -1.28
ATTTGGACTTTTACTCTTAGAGATAATGGG | 2.47
TGGACACACGAATAATGGAGCTGATGTCCT | 0.829
TAGCACTTTGGACCTCCACTTTGGAGGGGG | 2.76
AGCCACTCATTCTTGGAATGCATTGCAAGT | -1
ACAAGTGTACAAAGGTCACTTCTGTTCATT | 6.56
GCAGAAGAATGGATGAGCTAATCAGAGCAT | -1.33
TTCTCATCCGCTAATGACACCAGGGAACAC | -0.383
CACTGGCTGCTGCTCAGGAGACCGAGCAGC | -1.32
TGAATTCTGCAGCAGATGGCCAGCCTTTGG | -0.939
TCTAAACCTAGCAGCCTGCCACCCAACCTG | -1.32
GCTCTGATACTTTCTGTATCTAATCTCAGA | -0.752
CAAACAGCTTAGGGTTCAAACTCCAGCTCT | 4.15
TGACAAGCAGCCTCAGTGGCTCACAAATGG | -1.48
GTAAAGCCACTGCCTAGATAAAAGGGTCTT | -1.26
CTCGGAGACACACTCAGGCACTGGGATCCA | -1.1
GATTCACAGCAGGCTCACAAGATTGCATTC | -1.01
AACACTGGATAAAGTCCATATTCTTTGTTT | 2.56
GAGTAAGCAATCAGATATCCATTTATCTCA | -0.96
GTCATTGGTATCCACAGAGTTCATAATTTT | 0.993
AAAGTGTCAAGTAGAGACCTGTCTTCCTGG | -0.0215
TAAGACATGCTCGCAGCTGCATAGATAAGA | -1.4
GAGCAAAGATCATCTGGTGGCTATCAAGCA | -1.11

Sequence | binding signal (log2 normalized intensity)
TGCAGACAGTCCCTCCTCCAGCATAGGCTA | -1.21
TTGAAGAGCACAGGGTCAGCAGATCTTTGT | 0.292
TCCCTTGCTCCACCCTTCTATCCCCTTATC | 2.94
TCAACAGAGTGCTTAATCTCTGCTCATAAT | -1.32
GTGATCAATGTGACTGGAGCAGAGCGATCA | -1.34
AGTTCAGCCCTTAGGACCAGGGGGGGAATG | -1.46
CTCAGGCACACAAAAAAAACCACTCTTATC | -1.24
TCCCAACAGGAGATTACTTCAAGGCTGGAG | -1.39
CTACCCTTCATCTTCAATACAGAGTCCAAA | 3.83
GCAAGACTTCTTCAGGGAGACTTCCAGGGA | -1.37
TCTTGCAGTCCACATTTCTGAGCTGTGGAA | 0.0191
AAATCAATCAAACTCTCTGTGGATGTATGT | 1.99
ACCTATGAGACATTTTGTCTTTTCTCCCCT | 2.59
GAGGGATTTTCAGTATACTGACTTATCAGG | 1.06
GTAATGAAAGGAAATCATTCCAGAAAGACA | -1.31
AAAGCTCAGATTGCCTAAAGGGGATTTTCT | -1.28
TTGGAATCAAACAGATGTAGACATTGGAAT | 3.47
GACCCGCCGCCCGAGGTCACTGTATGCCCG | 2.69
GGGAGATTCCTGACATTCAGTCTTTGTCTT | 1.27
GGGAGTCCTGGGCGTTGCTCTCCCACCCCG | 3.3
